For the assay, the system named is rice seeds. Nature of the assay: Seedling growth of pregerminated rice seed coated with gibberellic acid, sown by plane in flooded field. The conditions noted are these: 3 to 10 days after sowing; compared with classical treatment of rice seed with gibberellic acid.

For `C=C1C[C@]23C[C@@]1(O)CC[C@H]2[C@@]12C=C[C@H](O)[C@@](C)(C(=O)O1)[C@H]2[C@@H]3C(=O)O` [gibberellic acid], the shoot size entry is reported as “about the same size as the shoots obtained with classical treatment”.

For the origin of these results see patent US20010004460A1, “PROCESS FOR THE PREPARATION OF RICE SEED FOR SOWING” (priority 1995, published 2001).
